In PubChem BioAssay AID504332 (National Center for Advancing Translational Sciences (NCATS), 2011):
In all, about 350,000 compounds went through this assay and about 31,000 (8.9%) were called active. The inconclusive results got no clear call from the source; some entries with a clear call stand among them for comparison. Calls follow the shape of the dose curve; as a rule, active = well fitted inhibition curve with a large enough effect; inconclusive = small, poorly fitted or top-dose-only effect; inactive = no such curve, though single readings can be large or run the other way. Potencies beside an inconclusive call are fits to weak or partial responses and may not hold up.

These compounds were tested against Histone-lysine N-methyltransferase EHMT2 (Homo sapiens) (UniProt Q96KQ7) (assay: qHTS Assay for Inhibitors of Histone Lysine Methyltransferase G9a). Conditions: G9a H3K9 monomethylation, AlphaScreen, 2 h; activity, negative = inhibition: at 59 µM (top of the series) unless noted.
UniProt Q96KQ7, sequence (Q96KQ7 whole entry, looked up): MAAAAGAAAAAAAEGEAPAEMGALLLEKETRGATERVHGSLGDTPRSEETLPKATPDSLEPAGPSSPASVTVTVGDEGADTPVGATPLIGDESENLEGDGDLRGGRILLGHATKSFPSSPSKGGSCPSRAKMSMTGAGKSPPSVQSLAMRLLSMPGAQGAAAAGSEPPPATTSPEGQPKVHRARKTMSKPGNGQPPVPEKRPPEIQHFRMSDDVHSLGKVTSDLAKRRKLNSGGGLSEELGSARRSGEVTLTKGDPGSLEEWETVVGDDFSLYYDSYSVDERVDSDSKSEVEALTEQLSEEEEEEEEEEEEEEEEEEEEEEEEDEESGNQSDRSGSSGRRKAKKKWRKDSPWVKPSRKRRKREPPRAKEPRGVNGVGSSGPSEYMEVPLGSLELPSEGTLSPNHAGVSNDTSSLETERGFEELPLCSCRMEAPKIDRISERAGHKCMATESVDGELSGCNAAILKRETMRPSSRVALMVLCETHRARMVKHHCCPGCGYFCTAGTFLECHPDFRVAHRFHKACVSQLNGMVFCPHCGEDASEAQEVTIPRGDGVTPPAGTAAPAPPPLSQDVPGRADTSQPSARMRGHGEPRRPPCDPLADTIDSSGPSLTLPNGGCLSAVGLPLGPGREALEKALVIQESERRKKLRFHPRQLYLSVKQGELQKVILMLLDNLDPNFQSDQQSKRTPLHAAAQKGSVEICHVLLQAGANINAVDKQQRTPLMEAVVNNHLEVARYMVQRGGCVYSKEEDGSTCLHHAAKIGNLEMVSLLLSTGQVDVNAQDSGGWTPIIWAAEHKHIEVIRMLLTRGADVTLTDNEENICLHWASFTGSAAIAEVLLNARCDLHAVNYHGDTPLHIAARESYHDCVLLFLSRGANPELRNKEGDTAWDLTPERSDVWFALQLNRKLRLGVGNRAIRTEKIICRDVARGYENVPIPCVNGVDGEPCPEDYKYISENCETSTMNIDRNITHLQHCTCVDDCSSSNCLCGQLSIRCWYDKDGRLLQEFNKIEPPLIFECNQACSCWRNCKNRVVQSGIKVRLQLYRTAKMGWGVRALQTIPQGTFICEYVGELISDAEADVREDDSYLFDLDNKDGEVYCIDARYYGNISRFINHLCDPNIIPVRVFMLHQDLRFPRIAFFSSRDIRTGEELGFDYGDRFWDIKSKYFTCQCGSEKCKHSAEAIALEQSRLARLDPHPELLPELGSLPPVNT
Outline: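 G9a (20 nM) preincubated 15 min RT with compounds, then 500 nM biotinylated H3K9 peptide and 20 uM SAM added; 2 h RT reaction. Monomethyl-H3K9 product detected by AlphaScreen with anti-H3K9me1 antibody, streptavidin donor and anti-rabbit IgG acceptor beads.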
% is scaled to controls: 0 for no effect and ±100 for the full control effect; potency is read from the fitted curve at half-maximal effect; tags tell the direction and shape of the fitted curve.
Also: nearly all actives have a fitted effect of over 75% in size.

Compound	Potency	activity, negative = inhibition
CCc1cccc(NC(=O)CSc2nnc(-c3cc4occc4n3C)n2-c2ccccc2C)c1	inconclusive: 10 µM [inhibitor, partial curve]	
O=C(O)c1cc(C(=O)O)cc(-c2ccc(/C=c3/sc4nc5ccccc5n4c3=O)o2)c1	active: 2 µM	
Cc1ccc(C(=O)Cn2c(NCCO)nc3ccccc32)cc1	inconclusive: 56.2 µM [inhibitor, partial curve]	
O=C(NCc1ccco1)c1cc2sccc2n1Cc1ccccc1	inconclusive: 39.8 µM [inhibitor, single point]	
Cc1ccc(-n2nc(CO)c(C(=O)NCCC(C)C)n2)cc1C		inactive: -0.46%
O=C(NC1=NCCS1)C12CC3CC(C1)CC(C(=O)NC1=NCCS1)(C3)C2	inconclusive: 1 µM [inhibitor, partial curve, poor fit]	
CSc1ccc(CCNC(=O)Cn2c(C)c3cnn(-c4ccccc4)c(=O)c3c2C)cc1		inactive: -29.1%
c1ccc(-n2cnc3cc(NCc4ccncc4)ccc32)cc1		inconclusive: -74.5% [inhibitor]
CNC(=S)N1CCN=C1Nc1nc(C)cc(C)n1		inactive: -1.94% [at 102 µM]
CCN1CCN(C(=O)CCS(=O)(=O)c2cc3c(cc2Cl)NC(=O)CO3)CC1	inconclusive: 89.1 µM [inhibitor, single point]	
CCOc1ccc(Nc2cc(=O)oc3ccccc23)cc1		inactive: 14.1% [at 102 µM]
CCOc1ccc(C2=CSC3=NCCN23)cc1	inconclusive: 79.4 µM [inhibitor, single point]	
CCCN(C(=O)CCc1nc(-c2ccc(C)cc2)no1)c1ccc(OCC)cc1		inactive: 71.5%
COc1ccccc1N(C(=O)CCl)c1cn(C(C)=O)c2ccccc12	inconclusive: 79.4 µM [inhibitor, partial curve, poor fit]	
CCOC1(/N=C(\C)NS(=O)(=O)c2ccc(Cl)cc2)C(C)=CC(=O)C=C1C	inconclusive: 50.1 µM [inhibitor, partial curve]	
COC(=O)Cn1c(=NC(=O)c2ccc([N+](=O)[O-])s2)sc2cc(Br)ccc21	inconclusive: 35.5 µM [inhibitor, single point]	
COc1cc(C)ccc1OCC(=O)NC1CCCCCC1	inconclusive: 4.47 µM [inhibitor, single point]	
COc1ccc(Nc2c(-c3ccc(OC)cc3)nc3cnccn23)cc1	inconclusive: 50.1 µM [inhibitor, partial curve]	
Nc1nc(-c2ccccc2)c(N=Nc2ccc(Cl)cc2)s1	active: 2 µM	
Cc1ccc(-c2nc(CS(=O)CC(=O)NC3CC3)c(C)o2)cc1 (stereo not given)	inconclusive: 70.8 µM [inhibitor, single point]	
